Experimental data reported in the supplement of paper PMC11417369.
± gives the standard deviation of the averaged measurements. The list shows a part of the results.

These sequences were tested on PfAP2-G AP2 domain (GST-tagged) (assay: gcPBM binding intensity (ln(normalized median fluorescence intensity)); higher = stronger DNA binding).
Procedure, shortened: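 DNA-binding domains from P. falciparum, fused to GST and produced in E. coli, were put on an Agilent 4 × 180k double-stranded probe array for 1 h in 1× PBS holding 1% milk, 0.2 mg/ml BSA, 0.5% salmon testes DNA and 0.03% Triton X-100. Probes were primer-extended, 36 bp long and drawn from intergenic genomic regions, with negative controls included. After Alexa488 anti-GST antibody detection and a 488 nm scan, binding intensity was set as the highest Masliner-normalised natural-log median intensity across replicate spots of either probe orientation.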

| Sequence | gcPBM binding intensity (ln) |
| --- | --- |
| AATACGTTTATATATTGTACGTTATATATATATATA [XGTACX_site7452] | 11.1 ± 0.86 |
| TCATAAAATATGTTTTGTACATAAAATTAAACAAGT [XGTACX_site1763] | 10.9 ± 0.54 |
| AAATAAGAGAAAATATGTACATACATATATTTATAT [XGTACX_site6210] | 11.1 ± 0.53 |
| AAGAAAAGCAAACAAGTGCATAATAACAAAAAAAAT [GTGCAC_site9725] | 10.1 ± 0.12 |
| TATTTATTTATAAACACACAAATATTTTTATTTATA [CACACA_site6889] | 9.71 ± 0.085 |
| TAAGTTCGAATTACTTAAATATTGATTTTTTTAAAA [TGCATGCA_negctrl_site114] | 9.565 ± 0.007 |
| AACGAAAGAAAAAAAGCACACACAGTTTTGAGCAAT [CACACA_site8658] | 9.96 ± 0.16 |
| ACCATGATAAATGTATTAAATGTATCATAACCTATG [CACACA_negctrl_site513] | 9.91 ± 0.085 |
| ATGGAAACAAGCATCACACATATAAATATATATATA [CACACA_site4979] | 10 ± 0.28 |
| ATCCGTGTCTGAAATACACACATGATAATGTGAATG [CACACA_site8210] | 10 ± 0.23 |
| CAAACATTTTAATGTACACACACCCACAGACAAACA [CACACA_site5522] | 11.3 ± 0.92 |
| TTCTTTTTGAAATATTAACACACATTTTGTTAATTA [CACACA_site9337] | 9.825 ± 0.007 |
| AGGAATTTATAAAATTGTACTTTTAATTACCTACAG [XGTACX_site3153] | 11.3 ± 0.93 |
| ATAAATATCATATATATACACACGTAATACATAATA [CACACA_site4001] | 9.935 ± 0.092 |
| ATCTTATATATACGTTGTACTACAGGATATGTCATA [XGTACX_site5734] | 11.3 ± 0.86 |
| TTCATTTACCCTTATTAACACACAAAATATAATACG [CACACA_site8821] | 10.2 ± 0.19 |
| TGTATATTATAAGATAGTACATATATATAATATATA [XGTACX_site1297] | 10.8 ± 0.65 |
| TTAATATTATGTTAAAGTACTTTATATATATATAAT [XGTACX_site2646] | 11 ± 0.52 |
| AAGGAGATAATTTATTGTACATATAATAAATGAACA [XGTACX_site6252] | 10.9 ± 0.68 |
| TCTTACAAAAAAAAAAAAAAATAAAATAAAATATAT [CACACA_negctrl_site1575] | 9.54 ± 0.13 |
| ATAAAATAAAATAAATGTACACGAAAAAAAATATTT [XGTACX_site3747] | 11.5 ± 0.91 |
| ATATTAAGAATATATACACACATAAGTATTGTATAT [CACACA_site6110] | 9.835 ± 0.007 |

| Sequence | gcPBM binding intensity (ln) |
| --- | --- |
| GTACACATATATATATATATATATATATATATATTA [CACACA_negctrl_site1580] | 10.9 ± 0.42 |
| AAGAATATTTTTTTCTGTACATATAATTTATATACG [XGTACX_site5801] | 11.2 ± 0.71 |
| TTACTTGTTTATTTTATTTTTTTTTTTTTTTTGTTA [TGCATGCA_negctrl_site266] | 9.46 ± 0.22 |
| AGTGAGAAATACATAATAATACATTATGTGCATATT [XGTACX_negctrl_site247] | 9.92 ± 0.014 |
| AAAAATTTATTTTGTTTTTTAAGATTTTTTTTTTTT [CACACA_negctrl_site1210] | 9.46 ± 0.028 |
| GTTGGTAGATTTATTTGTACATATGTATCATATTAT [XGTACX_site7135] | 11 ± 0.39 |
| ACATACATATATATACGTACATATATATTTATATAT [XGTACX_site5799] | 11.4 ± 0.97 |
| ATTCTAAATATCAGTGCACACATTTCTACGCAAAGT [CACACA_site474] | 10.4 ± 0.16 |
| AGCAAATACAAACACACACACACATATACATATATA [CACACA_site3497] | 10.11 ± 0.064 |
| TAATTACAAAAACATACACACAAAAAAAAAAAAAAA [CACACA_site3782] | 9.74 ± 0.39 |
| ATATATATATATATGGGTACGTAAAAATATAATAAA [XGTACX_site4036] | 11.3 ± 0.74 |
| TCATATATTATATATTGTACAAAATAATAAGTATTT [XGTACX_site3987] | 10.7 ± 0.38 |
| ATAATTGTTTAAAGGTGTACAATACATATATTTTAA [XGTACX_site3648] | 11.4 ± 0.84 |
| ATTATACACCCGCGCACACACAACAAAAAAAAAAAA [CACACA_site5871] | 10.8 ± 0.71 |
| ATGCAATTATATAGTAGTACAAATTTATAAATATAC [XGTACX_site4869] | 11.3 ± 0.76 |
| ATAAATGGCTATAGCATATTGTATATGTGATTATAA [CACACA_negctrl_site948] | 9.7 ± 0.12 |
| GTTGTTATATAAAATTGTACATAAAAAACAAAATAT [XGTACX_site5313] | 11.2 ± 0.76 |
| TAAAATTATTAATGAGTGCATTATAAAATCTATATA [GTGCAC_site9493] | 9.88 ± 0.16 |
| TTTTCTTTCTTTCAAACACACATTAATTTTATTCAT [CACACA_site2734] | 9.88 ± 0.12 |
| TATATATATATATATTGTACTAAATCATTTAAATGA [XGTACX_site8016] | 10.8 ± 0.61 |
| AAAAAACAAAAACACACGCACACAAAAAAAAAAAAA [CACACA_site802] | 10.2 ± 0.6 |
| AAAATATTTATCATTTGTACTTAGATGTAAACTTGA [XGTACX_site1778] | 10.8 ± 0.61 |
